Results reported in the supplement of paper PMC7826260.
This is one part of the list. Viral Rep nickase domains cut single-stranded DNA in vitro (1 h at 37 °C, 3 µM enzyme); the outer parts of the 90-letter strands are left off. A value is the log2 ratio of uncut reads to the pool without enzyme; the lower, the more was cut; hits are not called. Because reads are shares of a total, they shift together; where an enzyme cuts many sequences, the uncut ones exceed 0.

Each sequence was assayed on T1, Rep nickase domain of tomato golden mosaic virus (assay: uncleaved DNA left, log2 of reads against the no-enzyme library (log2 ratio); higher = less cleavage (more negative = more Rep cleavage of the k-mer); sequences stand for … in CTCGTCCG…ACCGGAGA).
T1 sequence (Rep 1-124, printed without the tag): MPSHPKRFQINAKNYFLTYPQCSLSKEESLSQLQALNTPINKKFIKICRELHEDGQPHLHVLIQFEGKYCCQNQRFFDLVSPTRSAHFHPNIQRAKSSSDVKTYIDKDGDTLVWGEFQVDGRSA
Description: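 A pool of 90-nt single-stranded DNAs with seven random bases just before the constant AC of the nick site (name = the seven bases) was cut by 3 µM recombinant His6-SUMO-tagged Rep nickase domain (300 nM DNA, 50 mM HEPES pH 8.0, 50 mM NaCl, 1 mM MnCl2, 1 h, 37 °C, three replicates). Uncut DNA was amplified and sequenced.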
GAATGCA was tested, and the “uncleaved DNA left (log2)” value was -0.0285.
GACCATG was tested, and the “uncleaved DNA left (log2)” value was 0.0427.
With ACCCACT the “uncleaved DNA left (log2)” value was -0.0205.
With TCGAAAA the “uncleaved DNA left (log2)” value was 0.0175.
In the case of GACCGCG, the “uncleaved DNA left (log2)” value is reported as -0.0221.
CCCAGTG was tested, and the “uncleaved DNA left (log2)” value was 0.0502.
AGGTAGG was tested, and the “uncleaved DNA left (log2)” value was 0.0299.
ATCGGAC was tested, and the “uncleaved DNA left (log2)” value was 0.0254.
For AATTAAT, the “uncleaved DNA left (log2)” value was -0.296.
In the case of GGGGAAT, the “uncleaved DNA left (log2)” value is reported as 0.165.
In the case of AGTGCAA, the “uncleaved DNA left (log2)” value is reported as -0.172.
With CTGCACC the “uncleaved DNA left (log2)” value was -0.106.
For GCCACAA, the “uncleaved DNA left (log2)” value was -0.0856.
With CACAGTG the “uncleaved DNA left (log2)” value was 0.25.
For GAGAGTT, the “uncleaved DNA left (log2)” value was 0.114.
With AGGTACT the “uncleaved DNA left (log2)” value was -0.0413.
For CAATCCA, the “uncleaved DNA left (log2)” value was -0.604.
With GGCAAGT the “uncleaved DNA left (log2)” value was -0.0377.
In the case of AGGGCAT, the “uncleaved DNA left (log2)” value is reported as 0.00798.
For GATTACT, the “uncleaved DNA left (log2)” value was -0.652.
For GACTGAA, the “uncleaved DNA left (log2)” value was 0.0335.
With ACCTTAC the “uncleaved DNA left (log2)” value was -0.0721.
In the case of TCCAGTT, the “uncleaved DNA left (log2)” value is reported as -0.122.
GACTTAA was tested, and the “uncleaved DNA left (log2)” value was 0.115.
For AGGCGAG, the “uncleaved DNA left (log2)” value was 0.0158.
With GAGCCCG the “uncleaved DNA left (log2)” value was -0.097.
ACGTGGC was tested, and the “uncleaved DNA left (log2)” value was -0.0158.
In the case of TAGCAAT, the “uncleaved DNA left (log2)” value is reported as 0.0415.
With ACGCGAC the “uncleaved DNA left (log2)” value was 0.0423.
For ACCGCGA, the “uncleaved DNA left (log2)” value was 0.0496.
ATCGCAG was tested, and the “uncleaved DNA left (log2)” value was -0.184.
CTATAGT was tested, and the “uncleaved DNA left (log2)” value was -0.454.
In the case of GCAAGGC, the “uncleaved DNA left (log2)” value is reported as 0.0145.
With CCGCTTC the “uncleaved DNA left (log2)” value was -0.0484.
For TCCAAGT, the “uncleaved DNA left (log2)” value was 0.0663.
In the case of CGAGTAC, the “uncleaved DNA left (log2)” value is reported as -0.0629.
GAGCCCA was tested, and the “uncleaved DNA left (log2)” value was 0.00491.
For CACCGGC, the “uncleaved DNA left (log2)” value was -0.0795.
GCATGCA was tested, and the “uncleaved DNA left (log2)” value was -0.00557.
TAGTCCC was tested, and the “uncleaved DNA left (log2)” value was -0.255.
